From PubChem BioAssay AID1347073 (National Center for Advancing Translational Sciences (NCATS), 2019) come the findings set out here.

Hit rate of the full screen: of about 45,000 compounds, about 200 (0.44%) were called active. Inconclusive results (about 7%) are left out. Calls follow the shape of the dose curve; as a rule, active = well fitted activation curve with a large enough effect; inconclusive = small, poorly fitted or top-dose-only effect; inactive = no such curve, though single readings can be large or run the other way. This is one part of the list.

A short description of this assay: qHTS of TDP-43 Inhibitors: NCGC Sytravon Library Screen. Also: 0% is about no effect; nearly all actives have a fitted effect of over 55% in size. The conditions noted are these: yeast TDP-43 toxicity rescue, BacTiter-Glo growth, 24 h; series mostly up to 46.1 µM; growth rescue (activation): at the top concentration. In a few lines:
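TDP-43-expressing yeast, pregrown in raffinose, seeded at OD600 0.02 in galactose medium with compound for 24 hr at 30 deg C. Growth read by BacTiter-Glo luminescence, so rescue of toxicity appears as activation.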
(In general: qHTS replaces the single test concentration by a dilution series.)
Turning to `NC(=O)N/N=C/c1ccccc1OC(=O)c1ccccc1Br`, the “growth rescue (activation)” value was inactive: -20.4%. Regarding `Cc1cccc(NC(=O)c2ccc([N+](=O)[O-])cc2Cl)n1`, the “growth rescue (activation)” value is inactive: 20.3%.

Consider `CCOc1ccc(C2CC(c3c(O)c4ccccc4oc3=O)=NN2c2ccccc2)cc1OC` (centres undefined), for which the “growth rescue (activation)” value is inactive: -10.3%.

As to `O=C(O)Cc1sc(NC2CCCCC2)nc1-c1ccc(Cl)cc1`, the “growth rescue (activation)” value is inactive: 10.4%. As to `Cc1ccccc1NC(=O)/C=C1\SC(=O)NC1=O`, the “growth rescue (activation)” value was inactive: 5.65%. To `O=[N+]([O-])c1ccc(S(=O)(=O)Nc2ccc(S(=O)(=O)N3CCCC3)cc2)cc1` belongs inactive: -3.83%. For the molecule `Cc1ccc(NC(=O)CN(c2ccccc2F)S(C)(=O)=O)cc1`, the “growth rescue (activation)” value was inactive: 34.8%. Then `COc1cc(/C=N/Nc2ccc([N+](=O)[O-])cn2)cc(OC)c1O`, with inactive: 6.1%; and `O=C(CC1SC(=Nc2ccc3c(c2)OCCO3)NC1=O)Nc1ccc(F)cc1F` (centres undefined), with inactive: 24%; and `Cc1cc(C)c(S(=O)(=O)N2CCN(C(=O)C(C)Cn3nc(C)nc3C)CC2)c(C)c1` (centres undefined), with inactive: 10.5%. Regarding `O=c1c2ccccc2c(-c2ccccc2)nn1Cc1ccccc1`, the “growth rescue (activation)” value was inactive: 9.96%. In the case of `NC(=O)Cn1cnc2c(nnn2-c2ccc(F)cc2)c1=O`, the “growth rescue (activation)” value is inactive: 0.167%. Consider `CCCN(CCC)CCCNC(=O)c1cn(CC)c2ccc(S(=O)(=O)N3CCc4ccccc4C3)cc2c1=O`, for which the “growth rescue (activation)” value is inactive: 2.22%.

`NC1=NC(=O)/C(=C/c2ccccc2OCC(=O)Nc2ccc(F)cc2)S1`: the “growth rescue (activation)” value was inactive: -4.44%. As to `COc1cc(F)ccc1-c1cc(C(=O)NCc2cc(C(F)(F)F)cc(C(F)(F)F)c2)[nH]n1`, the “growth rescue (activation)” value was inactive: 4.95%. With `Cc1ccccc1NC(=S)NN1CCN(C)CC1`, the “growth rescue (activation)” value is inactive: -2.69%. For `CC(C)c1ccc(NC(=O)C2CCCN(S(=O)(=O)c3ccc4[nH]c(=O)ccc4c3)C2)cc1` (centres undefined), the “growth rescue (activation)” value was inactive: 7.41%. Consider `Clc1ccc(Nc2ccccc2)nn1`, for which the “growth rescue (activation)” value was inactive: -3.43%.

For `Nc1cc(C(=O)OCC(=O)NNC(=O)c2ccccc2F)ccc1Cl`, the “growth rescue (activation)” value was inactive: 12.4%. Turning to `Cc1cc(N/N=C/c2cccc(Cl)c2)nc(NCc2ccccc2)n1`, the “growth rescue (activation)” value was inactive: 20%. To `COc1cccc(NC(=O)C2(C)CCN2Cc2ccc3ccccc3c2)c1` (centres undefined) belongs inactive: 4.23%; to `Oc1ccccc1Cn1nnc2ccccc21`, inactive: 4.61%; to `CCC1CCCCN1S(=O)(=O)c1ccc(-n2cnnn2)c(C)c1` (centres undefined), inactive: 22.3%.

Take `CCOC(=O)c1c(C)c(C)n(Cc2cccc(OC)c2OC)c1C`: the “growth rescue (activation)” value was inactive: 17.8%. Then `CC(=O)Nc1ccc(NC(=O)c2cc[n+]([O-])cc2)cc1`, with inactive: -5.11%. As to `CSc1cccc(CNC(=O)C2CCC(=O)N(CCc3ccccn3)C2)c1` (centres undefined), the “growth rescue (activation)” value is inactive: 8.88%. To `CCOc1ccccc1C(=O)N[C@H](C(=O)Nc1nc2c(s1)CCCC2)C(C)C` belongs inactive: 1.86%; to `O=c1[nH]c2ccccc2cc1CN(CC1CCCO1)S(=O)(=O)c1ccccc1` (centres undefined), inactive: 8.38%; to `Cc1cccn2cc(-c3ccc(Cl)cc3)nc12`, inactive: 20.9%. To `Cc1ccc(-c2n[nH]c(=S)n2/N=C/c2sccc2C)cc1` belongs inactive: 17.1%; to `CCOC(=O)C1(CCOc2ccccc2)CCN(Cc2cccc(-n3cccn3)c2)CC1`, inactive: 8.66%. Then `CC(=O)c1ccc(Oc2cc(C)nc(N3CCOCC3)n2)cc1`, with inactive: -11.2%; and `CN(CC(=O)NC1CCCCCC1)S(=O)(=O)c1ccc(Br)cc1`, with inactive: 0.431%; and `O=C(O)CC/C(=N/NC(=O)CNC(=O)c1ccc2c(c1)OCCO2)c1ccccc1`, with inactive: 16.4%.

`O=C(Nc1cccc(NC(=O)c2sc3ccccc3c2Cl)c1)c1ccco1`: the “growth rescue (activation)” value was inactive: -1.97%. To `O=C(Nc1ccc(F)cc1)c1nc[nH]c1C(=O)Nc1ccc([N+](=O)[O-])cc1` belongs inactive: 13.7%. Then `COCCNC(=O)C(=O)N/N=C(\C)CC(=O)Nc1cccc(C(F)(F)F)c1`, with inactive: 13.6%; and `O=C(OCC(=O)N1CCCC1=O)c1cc2ccccc2o1`, with inactive: 1.63%. To `CSc1ccc(C=NNc2ccc(S(=O)(=O)Nc3ccccc3C(=O)O)cc2[N+](=O)[O-])cc1` belongs inactive: 10.5%; to `COC(=O)c1nonc1NCn1nnc2ccccc21`, inactive: 3.34%; to `COc1ccc(C(C(=O)NC2CCCC2)N(CCC(C)C)C(=O)CCC(=O)Nc2cc(C)on2)cc1` (centres undefined), inactive: -2.17%. `Cc1cc2c(ncn2C)c(NS(=O)(=O)c2ccc(F)cc2)c1C`: the “growth rescue (activation)” value is inactive: -0.896%.

Regarding `CCOC(=O)c1ccc(S(=O)(=O)NNC(=O)COc2ccccc2C)cc1`, the “growth rescue (activation)” value is inactive: 18.1%.

Regarding `COc1cccc(/C=N/Nc2ncc(C(F)(F)F)cc2Cl)c1O`, the “growth rescue (activation)” value is inactive: -80.8%. Then `Cc1c(Cl)cccc1NC(=O)CSc1nnc(C)n1CC1CCCO1` (centres undefined), with inactive: 1.03%. Then `COc1ccc(CN2CCOCCOCCOCCOCC2)cc1`, with inactive: 5.67%; and `CC(=O)c1cc(C#N)c(N(C)Cc2ccccc2)nc1C`, with inactive: 9.67%. For `Cc1cc(O)c(C(=O)/C=C/c2cccc([N+](=O)[O-])c2)c(=O)o1`, the “growth rescue (activation)” value is inactive: -2.17%. Then `N#Cc1nc(/C=C/c2ccc(F)cc2)oc1NC1CCCCC1`, with inactive: 10.9%; and `O=C(Cn1nnc(-c2ccccc2F)n1)Nc1ccc2c(c1)OCCO2`, with inactive: 13.1%. To `O=C(Cn1cc(COc2ccc3ccccc3c2)nn1)NS(=O)(=O)c1cccc(OC(F)F)c1` belongs inactive: 20.4%; to `CCn1c(SCC(=O)NC2CCCC2)nnc1-c1cccnc1`, inactive: 6.49%; to `Cc1cc(NC(=O)CSc2nnnn2-c2cc(Cl)ccc2C)no1`, inactive: 11.8%. Then `Cc1c(Cl)cnc(NC(=O)CSc2nncs2)c1Cl`, with inactive: 0.161%; and `Cc1ccc(S(=O)(=O)Nc2ccc(Nc3nccn4c(-c5ccc6ccccc6c5)cnc34)cc2)cc1`, with inactive: 23.7%.

Turning to `Cc1cc(C)cc(NC(=O)CN2CCC(C(=O)c3ccccc3)CC2)c1`, the “growth rescue (activation)” value was inactive: 4.39%. Turning to `Cc1ccc(NCc2cccn2-c2nnc(N3CCC(C(=O)NCc4ccc(F)cc4)CC3)s2)cc1`, the “growth rescue (activation)” value was inactive: -8.7%. To `O=C(N/N=C/C1C(c2ccccc2)C1(Cl)Cl)c1cccc(Br)c1` (centres undefined) belongs inactive: 7.2%; to `CCOC(=O)Cn1c(=O)oc2cc(S(=O)(=O)N(C)c3ccc(OC)cc3)ccc21`, inactive: 6.93%; to `COc1ccc(C(=O)Nc2ccc([N+](=O)[O-])cn2)c(OC)c1`, inactive: 16.3%. For the molecule `CC(=O)c1c(C)nc(-c2ccc(Cl)cc2)nc1N`, the “growth rescue (activation)” value was inactive: 23.4%. Consider `CCc1ccccc1N1CC(C(=O)Nc2cc(C)on2)CC1=O` (centres undefined), for which the “growth rescue (activation)” value is inactive: 11.8%. Turning to `CN(C)c1nc(C(F)(F)F)cc(=O)[nH]1`, the “growth rescue (activation)” value is inactive: 11.4%. In the case of `COc1cccc(N2CC(C(=O)Nc3c(C)cccc3C)CC2=O)c1` (centres undefined), the “growth rescue (activation)” value was inactive: -19.9%. `CC(C)(Oc1ccc(Cl)cc1)C(=O)O/N=C(\N)c1ccncc1`: the “growth rescue (activation)” value is inactive: 18.7%. Then `O=C(NCCCCCCNC(=O)c1cncc(O)c1)c1cncc(O)c1`, with inactive: 16.8%; and `O=[N+]([O-])c1cccnc1NCCc1ccccc1`, with inactive: 19.8%; and `COc1ccc(NC(=O)c2ccc(Oc3ncccn3)cc2)cc1`, with inactive: 23.5%. To `CC(Sc1n[nH]c(N)n1)C(=O)Nc1ccccc1-c1ccccc1` (centres undefined) belongs inactive: -10%; to `CN(C(=O)c1coc(=O)c2ccccc12)c1ccc(F)cc1`, inactive: 26.8%.

As to `COc1ccc(S(=O)(=O)N(C)C)cc1NCC(=O)Nc1cccc2ccccc12`, the “growth rescue (activation)” value is inactive: 6.02%. For `COc1cccc(OC)c1NC(=O)C1CCCN1C(=O)Nc1ccccc1F` (centres undefined), the “growth rescue (activation)” value is inactive: -0.9%.

On to `O=C/C=C/c1c(-c2ccccc2)cc2oc3ccccc3cc1-2`, for which the “growth rescue (activation)” value is inactive: -0.735%. Then `NC(=O)COC(=O)c1cc(Cl)cc(Cl)c1N`, with inactive: 13.9%. To `NC(=O)c1nn(-c2ccccc2)nc1NC(=O)Cn1nnc(-c2ccccc2)n1` belongs inactive: 12.1%. For the molecule `O=C(NC1CCCC1)C(c1ccccn1)N(C(=O)c1csnn1)c1ccc(F)cc1` (centres undefined), the “growth rescue (activation)” value is inactive: 3.72%. To `CN1CCN(c2ccccc2NC(=O)c2ccc([N+](=O)[O-])cc2Cl)CC1` belongs inactive: 17.5%; to `Cc1cccc(OCCSc2nc3ncnc(N)c3[nH]2)c1`, inactive: -9.13%; to `Cc1ccc(S(=O)(=O)NC(=O)C2(C)CCN2C(=O)COc2ccc(Cl)cc2)nc1` (centres undefined), inactive: -17.6%. `CSC(=NC#N)N1CCN(c2ccc([N+](=O)[O-])cc2)CC1`: the “growth rescue (activation)” value was inactive: 15.6%. To `O=S(=O)(c1ccccc1)c1nc(Nc2cccc(O)c2)sc1Cl` belongs inactive: 16.5%; to `CCOP(=O)(OCC)C(NC(=O)C(F)(F)F)c1ccccc1` (centres undefined), inactive: -1.86%; to `CC(C)(C)c1ccccc1NC(=O)c1ccc2c(c1)SC1=NS(=O)(=O)CCN12`, inactive: 2.29%. Then `N#CCCn1cc(CNC2CCC(O)CC2)c2ccccc21` (centres undefined), with inactive: 15.8%. Take `C=CCn1c(SCC(=O)c2c(N)n(C)c(=O)n(C)c2=O)nnc1-c1ccoc1C`: the “growth rescue (activation)” value is inactive: 12.9%. In the case of `O=C(Nc1cccc(NC(=O)c2ccc(Br)o2)c1)c1ccccc1`, the “growth rescue (activation)” value was inactive: 5.61%.

For the molecule `CC(C)C(NC(=O)OCc1ccccc1)C(=O)N1CCOCCOCCOCC1` (centres undefined), the “growth rescue (activation)” value is inactive: -8.43%. Then `CCCN1C(=O)/C(=C/c2c(NCCCOC(C)C)nc3c(C)cccn3c2=O)SC1=S`, with inactive: -11.1%. Then `OC(COC(c1ccccc1)c1ccccc1)CN1CCc2ccccc2C1` (centres undefined), with inactive: 5.93%. Consider `O=C(Nc1cccc(F)c1)C1CCN(C(=O)NCc2ccccc2)CC1`, for which the “growth rescue (activation)” value is inactive: 6.18%. As to `CCc1ccc2c(c1)NC(=O)C2(C)Cc1ccccc1C#N` (centres undefined), the “growth rescue (activation)” value was inactive: 12.1%. Then `N#CCCNS(=O)(=O)c1ccc(C(=O)OCC2CCCCC2)cc1`, with inactive: -9.06%; and `CCc1nnc(NC(=O)C2CCN(S(=O)(=O)c3ccc(C)cc3)CC2)s1`, with inactive: 0.19%; and `CN(Cc1nc(-c2ccc(Cl)cc2)no1)C(=O)c1ccco1`, with inactive: 11.7%. For the molecule `Cc1c(Cl)cccc1NC(=S)C(=C([O-])c1ccc(Cl)s1)[n+]1ccccc1`, the “growth rescue (activation)” value was inactive: 17.4%.

Take `CCCCC/C=N/NC(=O)c1[nH]c2ccc([N+](=O)[O-])cc2c1C`: the “growth rescue (activation)” value was inactive: 13.6%.

`COc1ccc(CCNC(=O)COc2ccc3c(C)cc(=O)oc3c2)cc1`: the “growth rescue (activation)” value was inactive: 9.7%. Then `Oc1c(CN2CCOCC2)ccc2ccccc12`, with inactive: -2.3%. Then `CCOc1ccc(NCc2ccccc2OCc2cccc(F)c2)cc1`, with inactive: 4.61%. For the molecule `O=C(CN1CCN(c2ccc(O)cc2)CC1)Nc1ccc(SC(F)F)cc1`, the “growth rescue (activation)” value was inactive: 13.3%. With `COc1ccc(NC(=O)CNc2ccc(C#N)cc2)cc1`, the “growth rescue (activation)” value was inactive: 21.8%.

On to `CCCSc1ncc(Cl)c(C(=O)N(Cc2ccc(N(C)C)cc2)C2CCS(=O)(=O)C2)n1` (centres undefined), for which the “growth rescue (activation)” value was inactive: 8.06%.

In the case of `O=C(NC(Cc1ccccc1)C(=O)O)/C(=C/c1cccc(Br)c1)NC(=O)c1ccco1` (centres undefined), the “growth rescue (activation)” value was inactive: 11.4%. To `COc1ccccc1-n1cccc1C=O` belongs inactive: -0.156%; to `CCOC(=O)c1ccc[n+](CC(=O)Nc2ccccc2OC(F)F)c1`, inactive: 5.61%; to `O=S(=O)(NC1CCCCC1)c1ccc(Br)s1`, inactive: 22.7%. To `Cc1nnc(SCC(=O)N/N=C/c2ccc(-c3ccc(C)c(Cl)c3)o2)s1` belongs inactive: 18.6%; to `O=C(NCCc1ccccc1)Nc1nnc([C@@H]2C[C@H](O)[C@@H](CO)O2)s1`, inactive: 2.78%.

Consider `CCOC(=O)CNC(=O)N1CCc2cc(S(=O)(=O)N3CCC(C)CC3)ccc21`, for which the “growth rescue (activation)” value was inactive: 28%.
